# Measured values taken from PubChem BioAssay AID2546 (National Center for Advancing Translational Sciences (NCATS), 2010).
# In all, about 310,000 compounds went through this assay and about 11,000 (3.5%) were called active. The inconclusive results got no clear call from the source; some entries with a clear call stand among them for comparison. Calls follow the shape of the dose curve; as a rule, active = well fitted inhibition curve with a large enough effect; inconclusive = small, poorly fitted or top-dose-only effect, or effect the other way; inactive = flat fitted curve, though single readings scatter. Potencies of inconclusive entries are left out as doubtful fits.
# Experiment: VP16 counterscreen qHTS for inhibitors of ROR gamma transcriptional activity;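 also: Gal4-VP16 expression switched on by copper sulfate through the metallothionein promoter; nearly all actives have a fitted effect of over 50% in size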
# Settings: Drosophila S2 Gal4-VP16 UAS-luciferase, luminescence, 20 h; activity, negative = inhibition: at 53.6 µM (top of the series)
# % is scaled to controls: 0 for no effect and ±100 for the full control effect; potency is read from the fitted curve at half-maximal effect; tags tell the direction and shape of the fitted curve.
Compound,Potency,"activity, negative = inhibition"
CC(C)c1nc2ccc(Br)cn2c1NC1CCCC1,"inconclusive [inhibitor, single point]",–
C[C@@H](NC(=O)/C(C#N)=C/c1ccc(O)c(O)c1)c1ccccc1,"inconclusive [inhibitor, single point]",–
CCCCCCCCCCCCSCCOCCO,inactive,–
CCCCOc1ccc(CSCCNC(=S)Nc2ccccc2)cc1,active: 4.47 µM,–
NC(=O)CC(NC(=O)c1cccc(Br)c1)c1ccc(N2CCCCCC2)c([N+](=O)[O-])c1 (centres undefined),"inconclusive [inhibitor, single point]",–
C=CCNC(=S)Nc1sc2c(c1C(=O)OCC)CC(C(C)C)OC2 (centres undefined),active: 4.47 µM,–
O=C(CCCn1c(SCC(=O)c2ccc(F)cc2)nc2ccccc2c1=O)NCc1ccccc1,"inconclusive [inhibitor, single point]",–
O=C(N/N=C/C=C/c1ccccc1[N+](=O)[O-])c1cccs1,"inconclusive [inhibitor, single point]",–
COc1ccc(Oc2nc(-c3ccccn3)nc3ccccc23)cc1,active: 2.51 µM,–
C=CCNC(=O)c1cc(-c2ccc(Br)cc2)on1,"inconclusive [inhibitor, partial curve]",–
COc1ccc(N(C(=O)c2ccncc2)S(=O)(=O)c2ccc3c4c(cccc24)C(=O)N3C)cc1,"inconclusive [inhibitor, single point]",–
Nn1c(N2CCCCC2)nc2ccccc21,inactive,–
O=C(CCl)Nc1ccccc1C(=O)NCc1ccccc1,inactive,–
COc1cccc(NC(=S)NNC(=O)Cn2nc(C(F)F)cc2C(F)F)c1,"inconclusive [inhibitor, partial curve, poor fit]",–
CC(=O)C(Sc1ncnc2sc3c(c12)CCCC3)C(C)=O,active: 15.8 µM,–
CCCN1CNC(=S)N(c2ccccc2OC)C1,inactive,–
Cn1nc(C(C)(C)C)cc1C(=O)NCc1ccc2c(c1)OCO2,active: 1 µM,–
Cc1cnc(NC(=O)c2cc3c(C)nn(Cc4ccccc4Cl)c3s2)s1,active: 4.47 µM,–
NS(=O)(=O)c1ccc(NC(=O)COC(=O)C23CC4CC(CC(C4)C2)C3)cc1,"inconclusive [inhibitor, partial curve]",–
Cc1ccc(C)c(NC(=O)CSc2n[nH]c(-c3ccccn3)n2)c1,"inconclusive [inhibitor, single point]",–

Compound,Potency,"activity, negative = inhibition"
COc1ccc(C(=O)N/N=C/c2ccccn2)cc1OC,"inconclusive [inhibitor, single point]",–
COc1cc(/C=N/NC(=O)c2ccncc2)ccc1OC(=O)c1cccc(Br)c1,inactive,–
COc1ccc(C)cc1NC(=O)Nc1ccc(Br)cn1,inactive,–
COc1ccc(C(=O)Cc2nnc(C)s2)c(OC)c1,"inconclusive [inhibitor, single point]",–
Cc1ccc(S(=O)(=O)N(CC(=O)N/N=C/c2cccc(Cl)c2)c2cccc3cccnc23)cc1,"inconclusive [inhibitor, single point]",–
O=C(NCc1ccco1)c1ccc(S(=O)(=O)N2CCCCC2)cc1,inactive,–
CCCn1cnc2cc(NC(=O)c3ccco3)ccc21,"inconclusive [inhibitor, single point]",–
Fc1cccc(Cl)c1Cn1nnc2c(NCc3ccncc3)ncnc21,"inconclusive [inhibitor, single point]",–
CC[C@H](C)[C@H](NC(=O)[C@H](Cc1ccc(O)cc1)NC(=O)[C@@H](NC(=O)[C@H](CCCN=C(N)N)NC(=O)[C@@H](N)CC(=O)O)C(C)C)C(=O)N[C@@H](Cc1cnc[nH]1)C(=O)N1CCC[C@H]1C(=O)O,inactive,–
Cc1ccc(NC(=O)CN(C)C(=O)Cc2ccc(Cl)c(Cl)c2)cc1,inactive,–
CC(=O)c1ccc(C2C=CC(Oc3ccc(F)cc3C)C(CO)O2)cc1 (centres undefined),–,inactive: -13.2% [at 10 µM]
CCOC(=O)CSc1ccc2ccccc2n1,inactive,–
COc1ccc(NS(=O)(=O)c2cccc(C(=O)O)c2)cc1,inactive,–
C=CCN1C(=O)C2(OCCCO2)c2cc(C)ccc21,inactive,–
CN1c2ccsc2/C(=N/Nc2ccccc2)CS1(=O)=O,"inconclusive [inhibitor, single point]",–
O=C(c1cccc(F)c1)N1CCC[C@@]2(CCN(C(c3ccccc3)c3ccccc3)C2)C1,inactive,–
COc1cc(C(=O)OCC(=O)Nc2c(F)cccc2F)cc(OC)c1C,inactive,–
CCC(=O)OCCNc1cc(Sc2nc3ccccc3s2)c2nonc2c1[N+](=O)[O-],active: 4.47 µM,–
CNC(=S)NC12CC3CC(CC(C3)C1)C2,active: 7.94 µM,–
